The numbers were not newly measured in publication PMC11006913, which cites them from elsewhere.

Some of the results follow.

Holding throughout (details): PBM; conditions not shown; double strand, one strand shown; scale: upbm affinity estimate (log intensity, higher = more binding, comparable within an allelic series)
The target of data set [1] is HOXD13 I297V (Homo sapiens) (UniProt P35453).
For data set [2], the target named is HOXD13 I322L (Homo sapiens) (UniProt P35453).
The target in data set [3] is HOXD13 N298S (Homo sapiens) (UniProt P35453).
Data set [4] concerns the target HOXD13 Q325K (Homo sapiens) (UniProt P35453).
In data set [5] the target is HOXD13 Q325R (Homo sapiens) (UniProt P35453).
Data set [6] has as its target HOXD13 R306W (Homo sapiens) (UniProt P35453).
Data set [7] has as its target HOXD13 S316C (Homo sapiens) (UniProt P35453).

Regarding CCGAACGC [8-mer CCGAACGC], the binding signal is 9.63 in data set [1]; 9.47 in data set [2]; 9.52 in data set [3]; 9.6 in data set [4]; 9.56 in data set [5]; 9.54 in data set [6]. For the same sequence, the binding signal in data set [7] is 9.67.

On to ATATGTGA [8-mer ATATGTGA], for which the binding signal in data set [1] is 11.4; in data set [2], 10.8; in data set [3] it was 11.6; in data set [4] it was 10.8; in data set [5] it was 11; in data set [6], 10.9. Besides, the binding signal in data set [7] is 11.2.

On to CCTCAGCC [8-mer CCTCAGCC], for which the binding signal in data set [1] is 9.56; in data set [2] it was 9.49; in data set [3], 9.53; in data set [4], 9.66; in data set [5], 9.45; in data set [6] it was 9.5. For the same sequence, the binding signal in data set [7] is 9.51.

For CTATAAAG [8-mer CTATAAAG], the binding signal in data set [1] is 12.2; in data set [2] it was 11.2; in data set [3], 12.4; in data set [4], 11.3; in data set [5], 11.4; in data set [6], 11.5. Moreover, the binding signal in data set [7] is 12.1.

CCAGCGCA [8-mer CCAGCGCA]: the binding signal in data set [1] is 9.3; in data set [2] it was 9.44; in data set [3] it was 9.3; in data set [4] it was 9.39; in data set [5] it was 9.51; in data set [6] it was 9.35. The binding signal in data set [7] was 9.33.

In the case of GTTTATTA [8-mer GTTTATTA], the binding signal is 12.6 in data set [1]; 11.4 in data set [2]; 12.9 in data set [3]; 11.4 in data set [4]; 12.4 in data set [5]; 12 in data set [6]. Besides, the binding signal in data set [7] was 12.6.

For GCCCGGGC [8-mer GCCCGGGC], the binding signal in data set [1] is 9.43; in data set [2], 9.43; in data set [3], 9.41; in data set [4], 9.51; in data set [5], 9.65; in data set [6] it was 9.3. In addition, the binding signal in data set [7] is 9.37.

In the case of CTCCTGCC [8-mer CTCCTGCC], the binding signal in data set [1] was 9.72; in data set [2], 9.53; in data set [3], 9.55; in data set [4] it was 9.72; in data set [5], 9.59; in data set [6], 9.62. Besides, the binding signal in data set [7] is 9.53.

Consider TACGATAA [8-mer TACGATAA], for which the binding signal was 11.1 in data set [1]; 10.9 in data set [2]; 11.3 in data set [3]; 11.1 in data set [4]; 11.3 in data set [5]; 10.7 in data set [6]. Also, the binding signal in data set [7] was 11.1.

For the sequence CCGCGCCC [8-mer CCGCGCCC], the binding signal was 9.35 in data set [1]; 9.3 in data set [2]; 9.36 in data set [3]; 9.27 in data set [4]; 9.44 in data set [5]; 9.37 in data set [6]. Besides, the binding signal in data set [7] was 9.39.

Turning to CTATTAAA [8-mer CTATTAAA], the binding signal in data set [1] was 12.6; in data set [2] it was 12; in data set [3], 12.8; in data set [4], 11.4; in data set [5], 11.8; in data set [6], 12.1. In addition, in data set [7], the binding signal was 12.4.

Consider TAATAAAA [8-mer TAATAAAA], for which the binding signal in data set [1] was 12.8; in data set [2], 11.6; in data set [3], 13; in data set [4], 11.3; in data set [5] it was 12.6; in data set [6], 12.4. In addition, the binding signal in data set [7] is 12.8.

As for CTTTATTA [8-mer CTTTATTA], the binding signal in data set [1] is 12.2; in data set [2], 11.3; in data set [3] it was 12.4; in data set [4], 11; in data set [5], 12; in data set [6], 11.4. Besides, the binding signal in data set [7] was 12.2.

As to GGCGCCCA [8-mer GGCGCCCA], the binding signal in data set [1] was 9.53; in data set [2] it was 9.53; in data set [3] it was 9.54; in data set [4], 9.28; in data set [5] it was 9.32; in data set [6] it was 9.46. Moreover, the binding signal in data set [7] is 9.56.

On to ATTTACAA [8-mer ATTTACAA], for which the binding signal in data set [1] is 12.3; in data set [2], 12.3; in data set [3] it was 12.4; in data set [4], 10.9; in data set [5], 11.3; in data set [6] it was 11.4. Besides, the binding signal in data set [7] was 12.1.

In the case of CGCCTCTC [8-mer CGCCTCTC], the binding signal in data set [1] was 9.5; in data set [2], 9.35; in data set [3] it was 9.17; in data set [4], 9.34; in data set [5], 9.25; in data set [6], 9.36. For the same sequence, the binding signal in data set [7] was 9.54.

CCCTCTGC [8-mer CCCTCTGC]: the binding signal is 9.28 in data set [1]; 9.18 in data set [2]; 9.13 in data set [3]; 9.63 in data set [4]; 9.4 in data set [5]; 9.18 in data set [6]. Moreover, the binding signal in data set [7] was 9.19.

As to GGGAGAAC [8-mer GGGAGAAC], the binding signal in data set [1] was 9.55; in data set [2] it was 9.56; in data set [3], 9.55; in data set [4] it was 9.32; in data set [5], 9.41; in data set [6], 9.5. The binding signal in data set [7] was 9.57.

On to GGGGGGGA [8-mer GGGGGGGA], for which the binding signal was 9.13 in data set [1]; 8.94 in data set [2]; 9.06 in data set [3]; 9.59 in data set [4]; 9.12 in data set [5]; 9.12 in data set [6]. For the same sequence, in data set [7], the binding signal was 9.11.

As to CCGAAGGC [8-mer CCGAAGGC], the binding signal was 9.43 in data set [1]; 9.37 in data set [2]; 9.48 in data set [3]; 9.67 in data set [4]; 9.41 in data set [5]; 9.34 in data set [6]. In addition, in data set [7], the binding signal is 9.48.

For the sequence ATTTACGA [8-mer ATTTACGA], the binding signal in data set [1] was 12.6; in data set [2] it was 12.6; in data set [3] it was 12.8; in data set [4], 10.6; in data set [5], 11.3; in data set [6] it was 11.8. In addition, the binding signal in data set [7] was 12.5.

Regarding TCATAAAA [8-mer TCATAAAA], the binding signal in data set [1] was 12.7; in data set [2], 11.3; in data set [3], 12.9; in data set [4], 11; in data set [5], 11.9; in data set [6], 12.1. Besides, the binding signal in data set [7] is 12.6.

As to CCCCACCG [8-mer CCCCACCG], the binding signal in data set [1] was 9.75; in data set [2] it was 9.43; in data set [3] it was 9.64; in data set [4], 9.82; in data set [5], 9.62; in data set [6] it was 9.64. In addition, the binding signal in data set [7] is 9.63.

In the case of CTATAAAC [8-mer CTATAAAC], the binding signal is 12.8 in data set [1]; 11.7 in data set [2]; 13 in data set [3]; 11.8 in data set [4]; 11.8 in data set [5]; 12.1 in data set [6]. The binding signal in data set [7] is 12.5.

With CCCGTAAA [8-mer CCCGTAAA], the binding signal in data set [1] was 12.3; in data set [2], 12.3; in data set [3], 12.4; in data set [4], 9.95; in data set [5], 10.4; in data set [6], 11.1. For the same sequence, the binding signal in data set [7] was 12.1.

On to CGGGAGCC [8-mer CGGGAGCC], for which the binding signal in data set [1] is 9.57; in data set [2], 9.47; in data set [3], 9.48; in data set [4], 9.4; in data set [5], 9.35; in data set [6], 9.38. Also, in data set [7], the binding signal was 9.51.

With TGTAGTAA [8-mer TGTAGTAA], the binding signal in data set [1] was 11.5; in data set [2], 11.3; in data set [3] it was 11.7; in data set [4], 10.7; in data set [5] it was 11; in data set [6], 10.8. Besides, the binding signal in data set [7] was 11.4.

Regarding CGGTGACC [8-mer CGGTGACC], the binding signal in data set [1] is 9.21; in data set [2] it was 9.22; in data set [3] it was 9.17; in data set [4], 9.3; in data set [5], 9.26; in data set [6], 9.31. Further, the binding signal in data set [7] was 9.25.
